# Data from the supplement of paper PMC10338343.
# ± gives the standard deviation. Only a part is listed here, and it is no random draw.
# Tested on: MIWI (PIWIL1) piRISC loaded with piRNA #1 (30 nt)
# Experiment: pre-steady-state target cleavage rate (min^-1); MIWI and MILI are mouse PIWI proteins and EfPiwi is from a freshwater sponge; tags in brackets are library labels; higher = faster piRNA-guided slicing of the target
# Conditions: guide: piRNA #1 5'p-UGAGGUAGUAGGUUGUAUAGUAUCCAGAGG; auxiliary factor: 500 nM mouse GTSF1
# In short: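 Cleave-'n-Seq: a transcribed, DNA-blocked target RNA library (0.1 nM) was mixed with 1 nM active affinity-purified piRISC carrying one synthetic guide, with or without 500 nM GTSF1 partner protein, in HEPES–potassium acetate buffer at 33 °C for 0–8 or 0–960 min. Uncleaved targets were sequenced and normalised to depth and to weakly complementary targets. Three trials were pooled, and k3 was capped at 0.0001 min^-1. The pre-steady-state cleavage rate came from a burst-and-steady-state fit.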
row,Sequence,pre-steady-state target cleavage rate
1,GGAGACGAUCCUAUACAACCUACUACCUCA,1.85 ± 0.17
2,GGUCUGUGAUACUAUACAACCUACUACCUCA,1.83 ± 0.11
3,GGUCUGGAUACUUUACAACGUACUACCUCA,0.889 ± 0.062
4,CCUGUGGAUACUAUACAACCUACUACCUCA,1.86 ± 0.11
5,GGUCUGGAUACUAUACAACCUACUACCUCA [g2:g28:cont:t1A],1.8 ± 0.1
6,GGAGACGAUAGUAUACAACGUACUACCUCA,0.447 ± 0.051
7,GGAGAGGAUACUAUCCAACCUACUACCUCA,1.71 ± 0.081
8,GCUCUGGAUACUAUACUACCUACUACCUCA,1.5 ± 0.088
9,GGAGACGAUACUAUACUACCUACAACCUCA,0.683 ± 0.057
10,GGAGACCUUGCUAUACAACCUACUACCUCA,1.36 ± 0.15
11,GGAGACCUAUCUAUAGAACGUACUACCUCA,0.0514 ± 0.0099
12,GGAGACCUUACUUAUACAACCUACUACCUCA,0.724 ± 0.066
13,GGAGUGGAUACUAUACAACCUACUAACCUCA,0.901 ± 0.053
14,GGAGACCAUACUAUACAACCUACUACCUCC [g2:g23:cont:t1C],1.05 ± 0.054
15,GGAGAGGAUAGUUUACAACCUACUACCUCA,0.163 ± 0.024
16,GGAGACCUAUCUAUACAACCUACUACCUCC [g2:g20:cont:t1C],0.753 ± 0.062
17,GGAGACGUUACUAUACUACCUACUACCUCA,1.03 ± 0.082
18,GGAGACCUUACUAUACAAGCUUCUACCUCA,0.0715 ± 0.011
19,GGAGAGGAUACUAUACAACAUACUACCUCA,0.386 ± 0.04
20,GGAGACCAUAGUAUACAACCUAGUACCUCA,0.301 ± 0.032

row,Sequence,pre-steady-state target cleavage rate
1,GCUCUGGAUACUAUACAACAUACUACCUCA,1.47 ± 0.089
2,GGAGACCUUACUAUACAACCGACUACCUCA,0.0139 ± 0.0025
3,GGAGACGAUACUAUAGAACCUACUACCUGA,0.296 ± 0.063
4,GGAGACCUUUACUAUACAACCUACUACCUCA,1.85 ± 0.17
5,GGAGAGGAUACUAUACAACGCUACUACCUCA,< 0.0001
6,GGUGUGGAUACUUUACAACCUACUACCUCA,1.6 ± 0.098
7,GGAGACCUAUGUAUACAACCUACAUCCUCA,0.00443 ± 0.0022
8,GGUCUGGAUACUAUACAACCUUCUUCCUCA,0.00514 ± 0.0021
9,GGACUGGAUACUAUACAAGCUACUACCACA,1.54 ± 0.088
10,GCUCUGGAUACUAUACAACCUACUACAUCA,1.42 ± 0.095
11,GGAGACCAUACUAUACAACCUACUACGUCA,0.981 ± 0.072
12,GGAGACCAUACUAUUCAACCUACUAGCUCA,0.479 ± 0.046
13,GGAGAGGAUACUAUACAACGUACAACCUCA,0.147 ± 0.032
14,GGUGUGGAUACUAAACAACCUACUACCUCA,1.68 ± 0.094
15,GCUCUGGAUACUAUACAACCUACUUCCUCA,0.689 ± 0.056
16,GGAGACCUAACUAUCACAACCUACUACCUCA,0.27 ± 0.038
17,GGUCUGGAUACUAUAGAAGCUACUACCUCA,0.261 ± 0.029
18,GGUCUGGGUACUAUACAACCUACUACCUCA,1.78 ± 0.12
19,GGAGAGGAAAGUAUACAACCUACUACCUCA,0.113 ± 0.016
20,GGAGACGAUACUAUACAUCCAACUACCUCA,0.0968 ± 0.012
